# Patent US5175190A, “Medium chain fatty acids of C8-10 for the treatment of skin lesions” (priority 1991, dated 1992)
# What was measured:
# [1] = directly into the bloodstream; no test described; cited from earlier work
# [2] = mouse, in vivo
# [3] = tested on: rodent tumor cells and normal lymphocytes; settings: no test described; cited from earlier work
# [4] = no test described, cited from earlier work
# [5] = tested on: Tumor (intra-hepatic); settings: tumor cells implanted in liver, around 80 mg
# [6] = tested on: Nb2 tumor; test: Treatment of rats implanted with the Nb2 tumor
# [7] = tested on: transplanted tumor M114; test: Treatment of implanted liver tumors in mice with sodium caprylate; format: in vivo
# Method: Mice were implanted with tumors and the tumors allowed to grow for six days. At this time, the tumor is about 5 mm or so in diameter, weighing 30 mg, and its own vascularization is well established. Mice were injected once daily intraperitoneally with 100 μmoles sodium caprylate, mixed with sucrose. Treatment continued for four days, then stopped. […] Tumors were treated and then removed a few hours later in order to examine the effects microscopically.
# [8] = tested on: Tumor (W256); settings: rat, W256, intraportal
# [9] = Distribution of 1-^14 C-oleic acid in liver lipids (TLC zones); settings: mouse, in vivo
# Method: The distribution of radioactivity was examined. Liver tissue was extracted with methanol: chloroform (1:2) and the chloroform phase was evaporated and spotted on thin layer chromatogram sheets. Autoradiograms were prepared and three zones were eluted, corresponding to esterified nonpolar lipids, fatty acids and phospholipids (Table 2).
# [10] = Uptake by lung; format: in vivo; settings: rat; one experiment
# Method: (§1) In a few experiments, other tissues were examined. […] In mice, portal blood after 30 min. contained 0.33 μmoles/ml.
# [11] = Uptake by adipose tissue; format: in vivo; settings: mice; after 30 min
# Method: as §1
# [12] = tested on: β-oxidation of fatty acids; settings: no test described; cited from earlier work
# [13] = no test described; cited from earlier work
smiles,measurement,setting,value
"CCCCCCCC(=O)O [caprylic acid, octanoic acid]",absorption from the gut,[1],rapidly absorbed
same,initial uptake compared with oleic acid,[2],considerably higher than that of oleic acid
same,lytic activity,[3],lytic
same,oxidation to CO2 compared with oleic acid,[4],Considerably more
same,rate of oxidation,[4]; β-oxidation,oxidized very rapidly
same,sufficiency of uptake by tumor cells for lysis,[5],clearly sufficient
CCCCCCCC(=O)[O-].[Na+] [sodium caprylate],tolerance of ip injection,[6],did not tolerate ip injection of sodium caprylate well
same,microscopic effects on tumor,[7]; after four hours,many cells with damaged nuclei were evident
same,tumor growth,"[7]; day 20, 100 μmoles ip once daily for four days from day 6","the tumors had recurred, but were smaller, being about one week behind controls in growth"
same,microscopic effects on tumor cells that invaded the lung,[7]; one instance,the same evidence of damage as in the liver
same,tumor eradication,"[7]; treatment begun day 4 following implantation, tumors about 3 mm",eradicated by day 8
same,microscopic effects on tumor,"[7]; two injections four hours apart, three hours later","extensive destruction, with considerable lysis having occurred"
CCCCCCCC/C=C\CCCCCCC[14C](=O)O [1-^14 C-oleic acid],uptake by tumor compared with liver,[8],the same as surrounding liver tissue
same,"% Distribution, free fatty acids",[9],12%
same,"% Distribution, neutral nonpolar lipids",[9],57.2 ± 4%
same,"% Distribution, phospholipids",[9],30.8 ± 3%
same,"% Distribution, total esterified fatty acids",[9],88.0%
same,uptake by lung compared with liver,[10],the same as liver
same,uptake by adipose tissue compared with liver,[11],varied and was sometimes much higher than liver
CC(C)=CCC/C(C)=C/C(=O)O [geranic acid],block of β-oxidation of fatty acids,[12],blocks β-oxidation of fatty acids
same,effect on cytolytic effect of other fatty acids,[3],enhances the cytolytic effect of other fatty acids
same,lytic activity,[3],lytic
CCCCCCCC/C=C\CCCCCCCC(=O)O [oleic acid],reduction of stratum corneum barrier,[13],greatly reduced
